From the supplement of paper PMC8728848
The list shows a part of the results.

Assays:
Experiment in all cases: glycan array binding signal (z-score within array); higher = stronger binding
Conditions in all cases: glycan notation: IUPAC condensed, linker removed
[1] = biological target: Fuc(a1-2)[GalNAc(a1-3)]Gal(b1-3)GlcNAc(b1-2)Man(a1-3)[Fuc(a1-2)[GalNAc(a1-3)]Gal(b1-3)GlcNAc(b1-2)Man(a1-6)]Man(b1-4)GlcNAc(b1-4)GlcNAc
How it was run: (§1)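 Glycan array binding is given as a within-array Z-score, which can be read as non-binding when negative. The arrays, 3228 of them, came from the Consortium for Functional Glycomics database and were retained only where the protein sequence was available. Z-scores were averaged across arrays of the same protein sequence at different concentrations or buffers and across linkers.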

[2] = biological target: Fuc(a1-2)[GalNAc(a1-3)]Gal(b1-3)GlcNAc(b1-2)Man(a1-3)[Fuc(a1-2)[GalNAc(a1-3)]Gal(b1-3)GlcNAc(b1-2)Man(a1-6)]Man(b1-4)GlcNAc(b1-4)[Fuc(a1-6)]GlcNAc
How it was run: as §1

[3] = biological target: Fuc(a1-2)[GalNAc(a1-3)]Gal(b1-3)GlcNAc(b1-3)GalNAc
How it was run: as §1

[4] = biological target: Fuc(a1-2)[GalNAc(a1-3)]Gal(b1-3)GlcNAc(b1-6)GalNAc
How it was run: as §1

[5] = biological target: Fuc(a1-2)[GalNAc(a1-3)]Gal(b1-4)Glc
How it was run: as §1

[6] = biological target: Fuc(a1-2)[GalNAc(a1-3)]Gal(b1-4)GlcNAc
How it was run: as §1

[7] = biological target: Fuc(a1-2)[GalNAc(a1-3)]Gal(b1-4)GlcNAc(b1-2)Man(a1-3)[Fuc(a1-2)[GalNAc(a1-3)]Gal(b1-4)GlcNAc(b1-2)Man(a1-6)]Man(b1-4)GlcNAc(b1-4)GlcNAc
How it was run: as §1

[8] = biological target: Fuc(a1-2)[GalNAc(a1-3)]Gal(b1-4)GlcNAc(b1-2)Man(a1-3)[Fuc(a1-2)[GalNAc(a1-3)]Gal(b1-4)GlcNAc(b1-2)Man(a1-6)]Man(b1-4)GlcNAc(b1-4)[Fuc(a1-6)]GlcNAc
How it was run: as §1

[9] = biological target: Fuc(a1-2)[GalNAc(a1-3)]Gal(b1-4)GlcNAc(b1-3)Gal(b1-4)GlcNAc
How it was run: as §1

[10] = biological target: Fuc(a1-2)[GalNAc(a1-3)]Gal(b1-4)GlcNAc(b1-3)Gal(b1-4)GlcNAc(b1-3)Gal(b1-4)GlcNAc
How it was run: as §1

[11] = biological target: Fuc(a1-2)[GalNAc(a1-3)]Gal(b1-4)GlcNAc(b1-3)GalNAc
How it was run: as §1

[12] = biological target: Fuc(a1-2)[GalNAc(a1-3)]Gal(b1-4)[Fuc(a1-3)]GlcNAc
How it was run: as §1

[13] = biological target: Fuc(a1-2)[GalNAc(a1-3)]Gal(b1-4)[Fuc(a1-3)]GlcNAc(b1-3)GalNAc
How it was run: as §1

[14] = biological target: Fuc(a1-2)[GalNAc(a1-4)]Gal(b1-4)GlcNAc
How it was run: as §1

[15] = biological target: Fuc(a1-2)[GalNAc(b1-3)]Gal
How it was run: as §1

Fuc(a1-3)GlcNAc = biological target: Fuc(a1-3)GlcNAc
How it was run: as §1

[16] = biological target: Fuc(a1-3)[Gal(b1-4)]Glc6S
How it was run: as §1

[17] = biological target: Fuc(a1-3)[Gal(b1-4)]GlcNAc
How it was run: as §1

[18] = biological target: Fuc(a1-3)[Gal(b1-4)]GlcNAc(b1-2)Man
How it was run: as §1

[19] = biological target: Fuc(a1-3)[Gal(b1-4)]GlcNAc(b1-2)Man(a1-3)[Fuc(a1-3)[Gal(b1-4)]GlcNAc(b1-2)Man(a1-6)]Man(b1-4)GlcNAc(b1-4)GlcNAc
How it was run: as §1

[20] = biological target: Fuc(a1-3)[Gal(b1-4)]GlcNAc(b1-2)Man(a1-3)[Fuc(a1-3)[Gal(b1-4)]GlcNAc(b1-2)Man(a1-6)]Man(b1-4)GlcNAc(b1-4)[Fuc(a1-6)]GlcNAc
How it was run: as §1

[21] = biological target: Fuc(a1-3)[Gal(b1-4)]GlcNAc(b1-2)Man(a1-6)[Gal(b1-4)GlcNAc(b1-2)Man(a1-3)]Man(b1-4)GlcNAc(b1-4)GlcNAc
How it was run: as §1

[22] = biological target: Fuc(a1-3)[Gal(b1-4)]GlcNAc(b1-3)Gal(b1-3)[Fuc(a1-4)]GlcNAc
How it was run: as §1

[23] = biological target: Fuc(a1-3)[Gal(b1-4)]GlcNAc(b1-3)GalNAc
How it was run: as §1

[24] = biological target: Fuc(a1-3)[Gal(b1-4)]GlcNAc(b1-4)Gal(b1-4)[Fuc(a1-3)]GlcNAc
How it was run: as §1

[25] = biological target: Fuc(a1-3)[Gal(b1-4)]GlcNAc(b1-4)Gal(b1-4)[Fuc(a1-3)]GlcNAc(b1-4)Gal(b1-4)[Fuc(a1-3)]GlcNAc
How it was run: as §1

[26] = biological target: Fuc(a1-3)[Gal(b1-4)]GlcNAc(b1-6)GalNAc
How it was run: as §1

[27] = biological target: Fuc(a1-3)[Gal(b1-4)]GlcNAc(b1-6)[Gal(b1-3)GlcNAc(b1-3)]Gal(b1-4)Glc
How it was run: as §1

[28] = biological target: Fuc(a1-3)[Gal(b1-4)]GlcNAc(b1-6)[Neu5Ac(a2-3)Gal(b1-3)]GalNAc
How it was run: as §1

[29] = biological target: Fuc(a1-3)[Gal(b1-4)]GlcNAc6S
How it was run: as §1

[30] = biological target: Fuc(a1-3)[Gal3S(b1-4)]Glc6S
How it was run: as §1

[31] = biological target: Fuc(a1-3)[Gal3S(b1-4)]GlcNAc
How it was run: as §1

[32] = biological target: Fuc(a1-3)[Gal3S(b1-4)]GlcNAc6S
How it was run: as §1

[33] = biological target: Fuc(a1-3)[GalNAc(b1-4)]GlcNAc
How it was run: as §1

[34] = biological target: Fuc(a1-3)[GalNAc(b1-4)]GlcNAc6S
How it was run: as §1

[35] = biological target: Fuc(a1-3)[GalNAc3S(b1-4)]GlcNAc
How it was run: as §1

Fuc(a1-4)GlcNAc = biological target: Fuc(a1-4)GlcNAc
How it was run: as §1

Fuc(b1-3)GlcNAc = biological target: Fuc(b1-3)GlcNAc
How it was run: as §1

B1: Gal 8 (Homo sapiens), O00214_1 (protein)
chain: MMLSLNNLQNIIYNPVIPFVGTIPDQLDPGTLIVIRGHVPSDADRFQVDLQNGSSMKPRADVAFHFNPRFKRAGCIVCNTLINEKWGREEITYDTPFKREKSFEIVIMVLKDKFQVAVNGKHTLLYGHRIGPEKIDTLGIYGKVNIHSIGFSFSSDLQSTQASSLELTEISRENVPKSGTPQLRLPFAARLNTPMGPGRTVVVKGEVNANAKSFNVDLLAGKSKDIALHLNPRLNIKAFVRNSFLQESWGEEERNITSFPFSPGMYFEMIIYCDVREFKVAVNGVHSLEYKHRFKELSSIDTLEINGDIHLLEVRSW
[1]
  glycan array binding signal (z-score): 2.08
[2]
  glycan array binding signal (z-score): 1.73
[3]
  glycan array binding signal (z-score): 0.806
[4]
  glycan array binding signal (z-score): 0.449
[5]
  glycan array binding signal (z-score): 1.89
[6]
  glycan array binding signal (z-score): 1.73
[7]
  glycan array binding signal (z-score): 2.14
[8]
  glycan array binding signal (z-score): 1.49
[9]
  glycan array binding signal (z-score): 2.58
[10]
  glycan array binding signal (z-score): 2.31
[11]
  glycan array binding signal (z-score): 0.842
[12]
  glycan array binding signal (z-score): 0.021
[13]
  glycan array binding signal (z-score): 0.009
[14]
  glycan array binding signal (z-score): -0.125
[15]
  glycan array binding signal (z-score): -0.208
Fuc(a1-3)GlcNAc
  glycan array binding signal (z-score): -0.204
[16]
  glycan array binding signal (z-score): -0.163
[17]
  glycan array binding signal (z-score): -0.196
[18]
  glycan array binding signal (z-score): -0.198
[19]
  glycan array binding signal (z-score): -0.192
[20]
  glycan array binding signal (z-score): -0.182
[21]
  glycan array binding signal (z-score): -0.273
[22]
  glycan array binding signal (z-score): -0.074
[23]
  glycan array binding signal (z-score): -0.171
[24]
  glycan array binding signal (z-score): -0.228
[25]
  glycan array binding signal (z-score): -0.181
[26]
  glycan array binding signal (z-score): -0.029
[27]
  glycan array binding signal (z-score): -0.242
[28]
  glycan array binding signal (z-score): -0.149
[29]
  glycan array binding signal (z-score): -0.162
[30]
  glycan array binding signal (z-score): -0.127
[31]
  glycan array binding signal (z-score): 0.108
[32]
  glycan array binding signal (z-score): -0.186
[33]
  glycan array binding signal (z-score): -0.131
[34]
  glycan array binding signal (z-score): -0.207
[35]
  glycan array binding signal (z-score): -0.232
Fuc(a1-4)GlcNAc
  glycan array binding signal (z-score): -0.171
Fuc(b1-3)GlcNAc
  glycan array binding signal (z-score): -0.095
